# Source: the supplement of paper PMC4604168 (melanoma cell lines)
# The other results are listed elsewhere or left out. Single values are uncertain, as repeats are few or missing.
# Legend:
# Assay in all cases: cell count relative to DMSO control; melanoma cells; higher = more viable cells
# Settings in all cases: library dose: low library concentration; 72 h
# [1] = system: MZ2-MEL
# [2] = system: MeWo
# [3] = system: RPMI7951
# [4] = system: RVH-421
# [5] = system: SkMel28
# [6] = system: SkMel2
# [7] = system: SkMel30
# [8] = system: SkMel5
# [9] = system: UACC257
# [10] = system: UACC62
# 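Also: cell number obtained by counting DAPI-stained nuclei in high-throughput microscope images with image analysis software, screen run in 1,536-well plates.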
smiles,measurement,setting,value
"Cn1nnc2c(C(N)=O)ncn2c1=O [temozolomide] + CN(C)S(=O)(=O)c1ccc2c(c1)/C(=C/c1cc3c([nH]1)CCCC3)C(=O)N2 [SU6656] (first compound 2 µM, partner dose 0.4 µM)",cell count,[1],98.4%
same,cell count,[2],110%
same,cell count,[3],109%
same,cell count,[4],109%
same,cell count,[5],80.1%
same,cell count,[6],102%
same,cell count,[7],85%
same,cell count,[8],86.6%
same,cell count,[9],87.9%
same,cell count,[10],57.9%
"O=C(O)c1ccc2c(c1)nc(Nc1cccc(Cl)c1)c1ccncc12 + N#Cc1c(O)c2c(-c3ccc(-c4ccccc4O)cc3)csc2[nH]c1=O [A769662] (first compound 0.4 µM, partner dose 2 µM)",cell count,[1],93.2%
same,cell count,[2],96.5%
same,cell count,[3],99%
same,cell count,[4],90.2%
same,cell count,[5],90.4%
same,cell count,[6],98.3%
same,cell count,[7],88.1%
same,cell count,[8],99.3%
same,cell count,[9],91.7%
same,cell count,[10],113%
"O=C(Nc1cc(C(F)(F)F)cc(C(F)(F)F)c1)c1cc(Cl)ccc1O + CCc1ccc(CCOc2ccc(CC3SC(=O)NC3=O)cc2)nc1 [pioglitazone] (first compound 0.016 µM, partner dose 2 µM)",cell count,[1],90.4%
same,cell count,[2],104%
same,cell count,[3],98%
same,cell count,[4],99.2%
same,cell count,[5],96.8%
same,cell count,[6],104%
same,cell count,[7],91.2%
same,cell count,[8],100%
same,cell count,[9],88.2%
same,cell count,[10],79%
"O=C(O)[C@@H]1[O][Sb](=[O])([O][Sb]2(=[O])[O][C@H]([C@H](O)CO)[C@H](O)[C@H](C(=O)O)[O]2)[O][C@H]([C@H](O)CO)[C@@H]1O (stereo not given in full) [stibogluconate] + C=CCn1c(=O)c2cnc(Nc3ccc(N4CCN(C)CC4)cc3)nc2n1-c1cccc(C(C)(C)O)n1 [MK1775] (first compound 2 µM, partner dose 0.02 µM)",cell count,[1],102%
same,cell count,[2],90.6%
same,cell count,[3],82.5%
same,cell count,[4],89.7%
same,cell count,[5],79.6%
same,cell count,[6],99%
same,cell count,[7],94.1%
same,cell count,[8],95.6%
same,cell count,[9],72.5%
same,cell count,[10],98.1%
"O=C(Nc1cc(C(F)(F)F)cc(C(F)(F)F)c1)c1cc(Cl)ccc1O + O=C(O)c1ccc(-c2c[nH]c3ncc(-c4ccccc4)cc23)cc1C1CCCC1 [GSK650394] (first compound 0.016 µM, partner dose 0.16 µM)",cell count,[1],94.4%
same,cell count,[2],85.6%
same,cell count,[3],86.3%
same,cell count,[4],95.7%
same,cell count,[5],85.6%
same,cell count,[6],96.3%
same,cell count,[7],94.3%
same,cell count,[8],87.8%
same,cell count,[9],63.6%
same,cell count,[10],82.3%
"O=C(O)[C@@H]1[O][Sb](=[O])([O][Sb]2(=[O])[O][C@H]([C@H](O)CO)[C@H](O)[C@H](C(=O)O)[O]2)[O][C@H]([C@H](O)CO)[C@@H]1O (stereo not given in full) [stibogluconate] + OCCn1cc(-c2cnc3nnn(Cc4ccc5ncccc5c4)c3n2)cn1 [PF04217903] (first compound 2 µM, partner dose 1 µM)",cell count,[1],97.2%
same,cell count,[2],100%
same,cell count,[3],72.9%
same,cell count,[4],88.8%
same,cell count,[5],101%
same,cell count,[6],87.3%
same,cell count,[7],98.3%
same,cell count,[8],106%
same,cell count,[9],114%
same,cell count,[10],87.6%
"O=C(O)[C@@H]1[O][Sb](=[O])([O][Sb]2(=[O])[O][C@H]([C@H](O)CO)[C@H](O)[C@H](C(=O)O)[O]2)[O][C@H]([C@H](O)CO)[C@@H]1O (stereo not given in full) [stibogluconate] + Cc1cc([N+](=O)[O-])ccc1NS(=O)(=O)c1cc(Cl)ccc1Cl [FH535] (first compound 2 µM, partner dose 1 µM)",cell count,[1],92.6%
same,cell count,[2],102%
same,cell count,[3],118%
same,cell count,[4],111%
same,cell count,[5],88.8%
same,cell count,[6],100%
same,cell count,[7],86.2%
same,cell count,[8],81.3%
same,cell count,[9],91.2%
same,cell count,[10],97.8%
"O=C(O)[C@@H]1[O][Sb](=[O])([O][Sb]2(=[O])[O][C@H]([C@H](O)CO)[C@H](O)[C@H](C(=O)O)[O]2)[O][C@H]([C@H](O)CO)[C@@H]1O (stereo not given in full) [stibogluconate] + Oc1nc(-c2ccc(C(F)(F)F)cc2)nc2c1CSCC2 [XAV939] (first compound 2 µM, partner dose 2 µM)",cell count,[1],103%
same,cell count,[2],97.2%
same,cell count,[3],86.3%
same,cell count,[4],91.2%
same,cell count,[5],108%
same,cell count,[6],92.1%
same,cell count,[7],115%
same,cell count,[8],76.9%
same,cell count,[9],84%
same,cell count,[10],107%
"O=C(O)c1ccc2c(c1)nc(Nc1cccc(Cl)c1)c1ccncc12 + COc1ccc2c(c1)CCC1C2CCC2(C)C(NCCCCCCN3C(=O)C=CC3=O)CCC12 [U73122] (first compound 0.4 µM, partner dose 0.4 µM)",cell count,[1],88.6%
same,cell count,[2],90.7%
same,cell count,[3],95.8%
same,cell count,[4],116%
same,cell count,[5],100%
same,cell count,[6],96.4%
same,cell count,[7],109%
same,cell count,[8],101%
same,cell count,[9],95.9%
same,cell count,[10],90.5%
"O=C(Nc1cc(C(F)(F)F)cc(C(F)(F)F)c1)c1cc(Cl)ccc1O + COc1cc(N2CCC(N3CCN(C)CC3)CC2)ccc1Nc1ncc(Cl)c(Nc2ccccc2S(=O)(=O)C(C)C)n1 [NVP-TAE684] (first compound 0.016 µM, partner dose 0.08 µM)",cell count,[1],97.1%
same,cell count,[2],94.5%
same,cell count,[3],88.8%
same,cell count,[4],91.6%
same,cell count,[5],81.3%
same,cell count,[6],90.7%
same,cell count,[7],82.1%
same,cell count,[8],87.7%
same,cell count,[9],78.8%
same,cell count,[10],85.1%
"O=C(O)c1ccc2c(c1)nc(Nc1cccc(Cl)c1)c1ccncc12 + CC(C)(C)c1cnc(CSc2cnc(NC(=O)C3CCNCC3)s2)o1 [SNS-032] (first compound 0.4 µM, partner dose 0.01 µM)",cell count,[1],88.8%
same,cell count,[2],96.8%
same,cell count,[3],77.3%
same,cell count,[4],108%
same,cell count,[5],92.5%
same,cell count,[6],103%
same,cell count,[7],108%
same,cell count,[8],110%
same,cell count,[9],80.4%
same,cell count,[10],85.2%
"O=C(O)[C@@H]1[O][Sb](=[O])([O][Sb]2(=[O])[O][C@H]([C@H](O)CO)[C@H](O)[C@H](C(=O)O)[O]2)[O][C@H]([C@H](O)CO)[C@@H]1O (stereo not given in full) [stibogluconate] + CC1(C)NC(=O)N(c2ccc([N+](=O)[O-])c(C(F)(F)F)c2)C1=O [nilutamide] (first compound 2 µM, partner dose 1 µM)",cell count,[1],96.7%
same,cell count,[2],93.8%
same,cell count,[3],119%
same,cell count,[4],103%
same,cell count,[5],94.1%
same,cell count,[6],108%
same,cell count,[7],97.2%
same,cell count,[8],88.7%
same,cell count,[9],89.5%
same,cell count,[10],115%
"O=C(Nc1cc(C(F)(F)F)cc(C(F)(F)F)c1)c1cc(Cl)ccc1O + O=C(O)C(=O)Nc1sc2c(c1C(=O)O)CCNC2 [TCS401] (first compound 0.016 µM, partner dose 1.66667 µM)",cell count,[1],101%
same,cell count,[2],104%
same,cell count,[3],102%
same,cell count,[4],89.4%
same,cell count,[5],93.4%
same,cell count,[6],106%
same,cell count,[7],105%
same,cell count,[8],90.9%
same,cell count,[9],87.9%
same,cell count,[10],93.4%
"O=C(O)c1ccc2c(c1)nc(Nc1cccc(Cl)c1)c1ccncc12 + Cc1cc(N2CCOCC2)cc2[nH]c(-c3c(NC[C@@H](O)c4cccc(Cl)c4)cc[nH]c3=O)nc12 [BMS536924] (first compound 0.4 µM, partner dose 0.2 µM)",cell count,[1],96.5%
same,cell count,[2],88.7%
same,cell count,[3],117%
same,cell count,[4],103%
same,cell count,[5],92%
same,cell count,[6],91.5%
same,cell count,[7],67.7%
same,cell count,[8],103%
same,cell count,[9],87.2%
same,cell count,[10],109%
"O=C(Nc1cc(C(F)(F)F)cc(C(F)(F)F)c1)c1cc(Cl)ccc1O + C[C@@H]1CCN(C(=O)CC#N)C[C@@H]1N(C)c1ncnc2[nH]ccc12 [CP690550] (first compound 0.016 µM, partner dose 1 µM)",cell count,[1],95.9%
same,cell count,[2],94.6%
same,cell count,[3],98.9%
same,cell count,[4],136%
same,cell count,[5],115%
same,cell count,[6],94.3%
same,cell count,[7],119%
same,cell count,[8],91.8%
same,cell count,[9],98.4%
same,cell count,[10],101%
"O=C(Nc1cc(C(F)(F)F)cc(C(F)(F)F)c1)c1cc(Cl)ccc1O + NC(=O)Nc1cc(-c2cccc(F)c2)sc1C(=O)N[C@H]1CCCNC1 [AZD7762] (first compound 0.016 µM, partner dose 0.02 µM)",cell count,[1],101%
same,cell count,[2],92.3%
same,cell count,[3],83%
same,cell count,[4],102%
same,cell count,[5],107%
same,cell count,[6],106%
same,cell count,[7],138%
same,cell count,[8],108%
same,cell count,[9],114%
same,cell count,[10],91.9%
"O=C(O)c1ccc2c(c1)nc(Nc1cccc(Cl)c1)c1ccncc12 + COc1cc2c(Oc3ccc4[nH]c(C)cc4c3F)ncnc2cc1OCCCN1CCCC1 [cediranib] (first compound 0.4 µM, partner dose 0.4 µM)",cell count,[1],91.5%
same,cell count,[2],91.4%
same,cell count,[3],112%
same,cell count,[4],116%
same,cell count,[5],104%
same,cell count,[6],94.4%
same,cell count,[7],78.4%
same,cell count,[8],100%
same,cell count,[9],104%
same,cell count,[10],91.6%
"O=C(O)c1ccc2c(c1)nc(Nc1cccc(Cl)c1)c1ccncc12 + C[C@@H]1CCN(C(=O)CC#N)C[C@@H]1N(C)c1ncnc2[nH]ccc12 [CP690550] (first compound 0.4 µM, partner dose 1 µM)",cell count,[1],90.1%
same,cell count,[2],94.9%
same,cell count,[3],94.4%
same,cell count,[4],108%
same,cell count,[5],107%
same,cell count,[6],91.7%
same,cell count,[7],107%
same,cell count,[8],118%
same,cell count,[9],89.2%
same,cell count,[10],87.8%
"O=C(O)c1ccc2c(c1)nc(Nc1cccc(Cl)c1)c1ccncc12 + COc1ccc(COc2ccc(Cc3cnc(N)nc3N)cc2OC)cc1 [GW2580] (first compound 0.4 µM, partner dose 1 µM)",cell count,[1],90.3%
same,cell count,[2],103%
same,cell count,[3],98.5%
same,cell count,[4],108%
same,cell count,[5],112%
same,cell count,[6],104%
same,cell count,[7],98.6%
same,cell count,[8],95%
same,cell count,[9],102%
same,cell count,[10],99.9%
"Cn1nnc2c(C(N)=O)ncn2c1=O [temozolomide] + COc1cc(Nc2ncc(F)c(Nc3ccc4c(n3)NC(=O)C(C)(C)O4)n2)cc(OC)c1OC [Tamatinib] (first compound 2 µM, partner dose 0.4 µM)",cell count,[1],77%
same,cell count,[2],94.8%
same,cell count,[3],92.1%
same,cell count,[4],94.9%
same,cell count,[5],73%
same,cell count,[6],95%
same,cell count,[7],82.6%
same,cell count,[8],81.9%
same,cell count,[9],84.3%
same,cell count,[10],71.7%
"O=C(O)c1ccc2c(c1)nc(Nc1cccc(Cl)c1)c1ccncc12 + O=C(O)c1ccc(-c2c[nH]c3ncc(-c4ccccc4)cc23)cc1C1CCCC1 [GSK650394] (first compound 0.4 µM, partner dose 0.16 µM)",cell count,[1],92.5%
same,cell count,[2],82.3%
same,cell count,[3],97.9%
same,cell count,[4],113%
same,cell count,[5],94.1%
same,cell count,[6],89.3%
same,cell count,[7],100%
same,cell count,[8],96.6%
same,cell count,[9],75.9%
same,cell count,[10],99.3%
"O=C(O)[C@@H]1[O][Sb](=[O])([O][Sb]2(=[O])[O][C@H]([C@H](O)CO)[C@H](O)[C@H](C(=O)O)[O]2)[O][C@H]([C@H](O)CO)[C@@H]1O (stereo not given in full) [stibogluconate] + CO[C@@H]1[C@H](N(C)C(=O)c2ccccc2)C[C@H]2O[C@]1(C)n1c3ccccc3c3c4c(c5c6ccccc6n2c5c31)C(=O)NC4 [Midostaurin] (first compound 2 µM, partner dose 0.08 µM)",cell count,[1],89%
same,cell count,[2],95.2%
same,cell count,[3],68.8%
same,cell count,[4],93%
same,cell count,[5],92.5%
same,cell count,[6],97.8%
same,cell count,[7],124%
same,cell count,[8],103%
same,cell count,[9],117%
same,cell count,[10],104%
